Our source for the ETS1 binding intensity values is the supplement of paper PMC10681739.

± gives the standard deviation of the averaged measurements. The full ranking holds about 4,100 sequences; the median of “arbitrary fluorescence units” is about 780, and the highest 2% start at about 22,000. The list shows a part of the results.

This experiment addresses T1, ETS1 (UniProt P14921).
T1 sequence: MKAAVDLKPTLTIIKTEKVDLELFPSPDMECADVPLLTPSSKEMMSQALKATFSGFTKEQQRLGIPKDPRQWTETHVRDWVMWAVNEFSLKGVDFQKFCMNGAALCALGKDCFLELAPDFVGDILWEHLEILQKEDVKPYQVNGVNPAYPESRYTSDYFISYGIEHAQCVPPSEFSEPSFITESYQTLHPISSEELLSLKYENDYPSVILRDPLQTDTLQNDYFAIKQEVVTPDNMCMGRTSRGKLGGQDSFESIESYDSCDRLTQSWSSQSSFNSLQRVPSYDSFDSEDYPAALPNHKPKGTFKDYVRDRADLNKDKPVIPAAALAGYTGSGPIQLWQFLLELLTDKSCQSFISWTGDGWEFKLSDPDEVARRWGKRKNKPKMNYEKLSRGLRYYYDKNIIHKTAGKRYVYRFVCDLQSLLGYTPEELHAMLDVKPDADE
The experiment in a line: ETS1 binding intensity (PBM fluorescence), ETS1 alone (arbitrary fluorescence units); higher = stronger binding. The following applies: ETS1 concentration 1 nM; RUNX1 concentration 0 nM. Put shortly:
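Full-length recombinant human ETS1 (1 nM, no RUNX1) was incubated, per standard PBM protocols, on double-stranded Agilent 4 × 180k arrays of 36-bp genomic probes whose RUNX1 partner site was mutated. Bound ETS1 was detected with anti-ETS1 antibody (Cell Signaling Technology 14069) and Alexa488-conjugated secondary antibody, then scanned on a GenePix 4400A. Binding level is spot fluorescence intensity, summarised over replicate spots (four printed per sequence) and not normalised.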
The sequence AGTATACTCTGGTGAGAAACTTCCTGCCATACCAGC registered an ETS1 binding intensity of 3360.
In turn, CTCGCCGAAGAGACGCAGACGCGTCCTTCCGGCGGG had an ETS1 binding intensity of 880.
As for CATGATAGTCGTTGGCCAGTCAATGAGGAAACGTAC, the ETS1 binding intensity amounted to 363.
In the case of CAAGTGTGTTGTCTCCTCTTATTTCCGGGTCTGTCA, the ETS1 binding intensity worked out at 2020.
TTCTCTGGGGACAATTAGGGTTTCTGGGTTTCCTGA yielded an ETS1 binding intensity of 457.
With AACTTAGCTTCCGGGAAGAAGGCGAGCGGAGGGAGG, the ETS1 binding intensity was determined as 8800.
As for AGCCACACCTCAGGGTTGTCACAGGAAATATGTGGC, the figure is 668; as for GAGACAGCGGCCTCAGTGGTGCGGAAGATGGAGAGG, 395; as for GCCAGCCAGAGACACCCTGTGCAGCTTCCTCCTTCG, 370.
ACTACCTGCTGGTGGACACCAGCGGCGGAAGTCGGG came in with an ETS1 binding intensity of 752.
Sequence CTGAGCCGGATGTTACTGGATAGTGCTTTTCTTTAT returned an ETS1 binding intensity of 6150.
With CCTCGCCCCCTTCCGCACCCACCCCAGCGCGCTCCG, the ETS1 binding intensity turned out to be 1640.
As for CCCGACTTCCGCCGCTGGTGTCCACCAGCAGGTAGT, the figure is 16300.
The sequence GTGTGAGCCACGGCGCCAAGCCACACTTCCTTCTGC gave an ETS1 binding intensity of 457.
In the case of TAGAGGAGCAGCCGCCGACCAGACATCCGGGTCCCT, the ETS1 binding intensity came to 1160.
As for CCCAGGGCAAGCGCTTGCCTCCCGCGGACGTGCATC, the ETS1 binding intensity is 369.
As to GTATTGTTTATCACAGCTATTTCCTTGAGAAGTTTC, the ETS1 binding intensity is 720.
Sequence ATAATAACTACAAGAGATCTGATTTCCGTTGCTGGT showed an ETS1 binding intensity of 1150.
As for TGAGCCGTAGACACCAAAAATCCCACAGGAAGTTGT, the figure is 644; as for GCCGTGCTGTTTCCAGGCCCTACTTCCTGCCATATC, 3420 ± 460.
TGGTCGCCGAAGCGAACAACCAGCTTCCGGCAAGCT: the ETS1 binding intensity was 4880.
On to CTGTGCTTGTAGGCGAAGCCAGGAAATAAGGATAAA, for which the ETS1 binding intensity is 652.
For the sequence AATCACTGACACCTACACAGCCGTTTCCTGCACTTA, the ETS1 binding intensity stood at 1140.
With CTCGTGTTTTGTAGCTGTGTTCTGTCCGGTCAGTTG the figure was 502 ± 32; with CTCCGGGAACAGCGGAAAAGGGACCCCATGAACCTC, 624; with CACGGAGCCACTTCCGGCGGCTGTGAGCGCAAAACC, 35500.
In turn, TGCTTCCGGCGGGCGCTTGCTCCCCGAGGTCGGCAA gave an ETS1 binding intensity of 24800.
The sequence CCTGACCTCTCTGGGAACACACAGGAAGTGGTTCAT had an ETS1 binding intensity of 2690.
Sequence AGAACAGCAGGAAATAAATACTCACCTCAGGACTGC had an ETS1 binding intensity of 1550.
In turn, CGAGGGAGCCGGAAAGATGGTGCTTACCAGATCTGC returned an ETS1 binding intensity of 693.
With CGGGAATCCACGGAATTTACTGCCGGAAGTTCGGCG the figure was 2700; with CCACCGCCCCGAAGCTCACACCGGATGTGCGACAGA, 7720.
Take TCCAAGGCGGAAAAAACCCGCCCTAAACAGCACCCC: the ETS1 binding intensity was determined as 371.
With CTTTGCTGCAGGATGTTCTAACTACAAGCCCAGGAG the figure was 1470; with GGCCTTTTCTTCCGCCCTCACAGCCACCGTGACCCA, 1610; with ACTCACTTCCGTTTAGCTTATCAACTACCAAGAGAC, 35500.
CTAGAGACTCGGTAGAAAGGTTCCGCCCGCTCCCTG: the ETS1 binding intensity came to 311.
TTCTGCGCCGCCGCCTCAGTCCCTTCTCAGGATGGG showed an ETS1 binding intensity of 313.
Sequence CGAGCTCGGTGTTCCGCTTTTTGTAGGCCGGGTGGG returned an ETS1 binding intensity of 594.
GAGCAAGCAGTGGCCAGGGAAGGCTTCCTGGAAGAG registered an ETS1 binding intensity of 421.
CAGAGGACAGGATGCCAACCCCAAAACAGCAGCGAC had an ETS1 binding intensity of 1460.
Consider GAGGGGGAGGTTTCCGGGGCCTGTGATTACTACACT, for which the ETS1 binding intensity was 3850.
Sequence TTGGGGTTGGCAGACAGCAGAGCAAAGGAAATTGGG had an ETS1 binding intensity of 431.
AACAGACAGGATGTGGCCTCTGCCAAAAGCACCATC came in with an ETS1 binding intensity of 5980.
With GGGGCAGGAAACAGCGTCCTGCGCGCGTAGCCCCTG the figure was 2160.
As to TGTGTATGAGAACGGATATAGGTGGATTTATAAGGA, the ETS1 binding intensity turned out to be 1010.
GCCGTGAGAAACATCCTGCCTAACTACCTGACTACA: the ETS1 binding intensity stood at 6690.
With CACCTCGGGGGTTTCCGGTCCGTGGCTAGCTCCTTC, the ETS1 binding intensity amounted to 14800.
GACATCCAGGAAGTGGTGAGAATCCACGTGTGTGTT yielded an ETS1 binding intensity of 6910.
GTCGGAAGTGGCCGTGAGCCCAAGCCGAGGTCCCGG had an ETS1 binding intensity of 1130.
CTCACAGGCCAGGAAAACAGCCGAAGTCACAGCAGG came in with an ETS1 binding intensity of 387.
As for ACCACACTTCCCAGGAGTCTCAGCGCCCGCGCGGAG, the figure is 538; as for GAATCACCATTTCCTCACTCCCTCACAACCATGTTG, 2790.
GCACGTGTTTCCTGGGGCTGCACCCCAGCACCACAC yielded an ETS1 binding intensity of 2380.
CATTTCTTCCTTCCTTGGCCCCCGAAGTGCGCCCGC had an ETS1 binding intensity of 862.
TAAGAGGAGACCTTAAACCAGAACCCTTCCTGGCAG: the ETS1 binding intensity is 345.
The sequence AGGCTGTGGCGGAAGTGGTCGCGTTAGCGCTTGTTT yielded an ETS1 binding intensity of 4470.
As to AGGACTGTAGGTTAGCTGCTCTGGGATGTGGCTGGG, the ETS1 binding intensity was determined as 339.
Take ATCTCCACATCCTCCCCATCGAGCGCATGGTTTACC: the ETS1 binding intensity came to 3030.
As for GGGAGGGCGGAAGGCGGCTCAGCGGCAGCAAGCCCC, the figure is 1010; as for GGCCGACGGGAAGTGTAGTCCGGCCTGCAGTCCGGG, 1970.
In turn, GACAAAGAGGAAGTCCCCAAAAACTACAATAACAGT had an ETS1 binding intensity of 3600.
In the case of GCCACAGCCGGAAGCAGGCTGACTACAAGTGCTAAG, the ETS1 binding intensity stood at 5390.
Regarding CCTCCCCCAGCGGCCGCCACTTCCTTTGTTGTTGCT, the ETS1 binding intensity came to 1500.
With GTGCCACTGAGAGGAAGGGGGCAACCCCAGTGGGAG the figure was 456; with GCTGTCCATTTCCGAGATGTTAATGCGCGATCTTGC, 1780.
GCAAACGGAAGAGAGGAACGAAGGCCGAAGAGCTTG came in with an ETS1 binding intensity of 945.
Regarding CCTTCCTTCCGGGGTCGGCCCCGCCCCCAAGCGCCG, the ETS1 binding intensity was 5970.
GTTTGGAGGAAGGACCCAGGGGCCCTTGTAGCTCAC yielded an ETS1 binding intensity of 416 ± 52.
As to CCCACATCCCGTGAGTCACCAGGTCCCATAAACCCT, the ETS1 binding intensity amounted to 4270.
In the case of CTCCTGTAGTTTCTAAACTGTCAGGATGTTGGCTTG, the ETS1 binding intensity worked out at 397.
As for GGCCTACGGCTGCTTCAGGCTCTCGGGAAGGAAGTT, the ETS1 binding intensity is 323.
Sequence ACTGTGTCTGGTGTTCCACAGAGGAAACTGCAAAGC showed an ETS1 binding intensity of 409.
Sequence CAGCCCCAGGCGGATTAGTTTTTTAGGAAACCGAGA registered an ETS1 binding intensity of 432.
Take CCCCTACTTCCCTTTTTGCTGGGCCGTAGTTTCGGT: the ETS1 binding intensity stood at 3010.
TCAGGGCTACAAGCTTGGGGCTGCTTCCTGGAACTG returned an ETS1 binding intensity of 421.
With CGGGACCTGTTTCCTTGGGAACTACAAGATAAGACC the figure was 520 ± 21; with ACCAGGATGTAGTTTAGCTTAGGGGTAGTTATATCG, 845; with GCACACCGGAACTCACACCTGAAATCACAGAACCAA, 3600.
The sequence GGGATCTGGGTTCTGGGGTGCAGGATGTGGGGTGCT yielded an ETS1 binding intensity of 509.
